From PubChem BioAssay AID2451 (National Center for Advancing Translational Sciences (NCATS), 2010)
Several values for one entry are separate records, joined by “and”; a condition that tells them apart may be missing. Equal values may be shown once. Among all 290,000 compounds or so, about 2,100 (0.72%) were called active. The inconclusive results got no clear call from the source; some entries with a clear call stand among them for comparison. The call rests on the fitted dose curve; in most records, active means well fitted inhibition curve with a large enough effect; inconclusive means small, poorly fitted or top-dose-only effect, or effect the other way; inactive means flat fitted curve, though single readings scatter. Potencies beside an inconclusive call are fits to weak or partial responses and may not hold up.

What follows are molecules tested against Fructose-bisphosphate aldolase (Giardia intestinalis (strain ATCC 50803 / WB clone C6)) (UniProt A8B2U2) (assay: qHTS Assay for Inhibitors of Fructose-1,6-bisphosphate Aldolase from Giardia Lamblia). Conditions: purified Giardia FBPA; activity, negative = inhibition: at 59.6 µM (top of the series) unless noted.
Method in brief: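 Giardia FBPA (40 nM reagent) was preincubated 10 min at RT with compound (up to 57.5 uM final), then substrate plus GAPDH/TPI/NAD/arsenate coupling system with diaphorase/resazurin was added; resorufin fluorescence (525/598 nm) was read after 20 min.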
Further: nearly all actives have a fitted effect of over 55% in size.
On the % scale 0 is the no-effect control and ±100 the full control effect; potency means the concentration at half of the fitted maximal effect; tags describe the fitted curve by direction and shape.

Chain of UniProt A8B2U2 (A8B2U2 whole entry, looked up): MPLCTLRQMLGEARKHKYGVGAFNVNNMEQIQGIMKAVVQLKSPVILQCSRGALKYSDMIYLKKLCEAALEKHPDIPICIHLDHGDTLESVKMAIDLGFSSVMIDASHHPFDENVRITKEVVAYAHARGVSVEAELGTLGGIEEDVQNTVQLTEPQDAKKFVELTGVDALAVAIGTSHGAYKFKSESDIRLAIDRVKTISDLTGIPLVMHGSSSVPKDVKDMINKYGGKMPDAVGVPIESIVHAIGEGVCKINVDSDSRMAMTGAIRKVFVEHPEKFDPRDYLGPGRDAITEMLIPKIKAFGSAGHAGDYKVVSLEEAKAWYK

Row | SMILES | Potency | activity, negative = inhibition
1 | COc1ccc(-c2nnn(CCc3nn[nH]n3)n2)cc1OC | inconclusive: 15.8 µM [inhibitor, single point] | 
2 | CC(=O)Nc1ccc(S(=O)(=O)N/N=C/c2cccnc2)cc1 | inconclusive: 25.1 µM [inhibitor, partial curve] | 
3 | C=CCn1c(-c2cccc(OC)c2)nc2nc3ccccc3nc21 |  | inactive: -4.75%
4 | Cc1cccc(N2CCC(N3CCN(C4CCCCC4)C(CCO)C3)CC2)c1C (stereo unspecified) | inconclusive: 15.8 µM [inhibitor, partial curve] | 
5 | COc1ccc(Cc2nc(C)cc(Cl)n2)cc1[N+](=O)[O-] | inconclusive: 20 µM [inhibitor, single point] | 
6 | Cc1cc(C)c(S(=O)(=O)Nc2nccs2)c(C)c1 |  | inactive: -29.5%
7 | CCc1nn(C(C)C(=O)Nc2cccc(C)c2C)c(=O)c2cc3occc3n12 (stereo unspecified) |  | inactive: -0.394%
8 | S=c1[nH]nc(Cc2cccs2)n1-c1cccc2ccccc12 |  | inactive: 13.3%
9 | NC(=O)CC1C(=O)N(c2ccccc2)C(=S)N1NC(=O)c1ccccc1 (stereo unspecified) | inconclusive: 25.1 µM [inhibitor, partial curve] | 
10 | Cc1cccc(NS(=O)(=O)c2nnc(NC(=O)C3CCCCC3)s2)c1 | inconclusive: 39.8 µM [inhibitor, single point] | 
11 | Cc1ccc(N=C2N=C(N)c3ccccc32)c(C)c1 |  | inactive: 5.41%
12 | Cc1sc(NC(=S)NC(=O)c2ccco2)c(C#N)c1C | inconclusive: 22.3 µM [inhibitor, partial curve] | 
13 | CCOC(=O)c1c(NC(=O)C2CC=CCC2C(=O)O)sc(C)c1CC (stereo unspecified) | inconclusive: 17.7 µM [activator, single point] | 
14 | Cc1ccc(OCCCN2CCOCC2)cc1 | active: 20 µM | 
15 | CCC(C)(C)c1ccc(Oc2cccc(C(=O)O)c2)cc1 | inconclusive: 15.8 µM [activator, single point] | 
16 | O=C(NNC(=S)Nc1ccccc1Cl)C1CC1 | inconclusive: 14.1 µM [inhibitor, partial curve] | 
17 | Cc1ccc(C(=O)CCC2CCCC2=O)cc1 (stereo unspecified) |  | inactive: -1.19%
18 | Cc1ccc(S(=O)(=O)NCCCCCC(=O)Nc2nccs2)cc1 | inconclusive: 25.1 µM [inhibitor, single point] | 
19 | COc1cccc(C(=O)NC(=S)Nc2ccc(Cl)cc2C(=O)O)c1 | inconclusive: 19.9 µM [inhibitor, single point] | 
20 | CC(C)C1NC2(C(=O)c3ccccc3C2=O)C2C(=O)N(c3ccc(F)cc3)C(=O)C12 (stereo unspecified) |  | inactive: -2.34%
21 | CCN1CCN(C(=O)c2cc3c(s2)-c2c(C)cccc2OC3)CC1 |  | inactive: 3.66%
22 | COc1ccc(/C=C2\CCCc3c2nc2ccccc2c3C(=O)O)cc1OC | active: 7.92 µM | 
23 | Cc1[nH][nH]c(=O)c1C(c1c(C)[nH][nH]c1=O)c1cn(Cc2ccccc2Cl)c2ccccc12 | inconclusive: 17.7 µM [inhibitor, partial curve] | 

Row | SMILES | Potency | activity, negative = inhibition
24 | CCN1CCN(c2cc(N3CCN(C(=O)c4ccco4)CC3)c3c4c(onc24)-c2ccccc2C3=O)CC1 | inconclusive: 7.08 µM [inhibitor, partial curve] | 
25 | N#CCSc1n[nH]c2nc3c(c(=O)n12)C1(CCCC1)Cc1ccccc1-3 | inconclusive: 17.7 µM [activator, partial curve] | 
26 | Clc1ccccc1-c1nnn(Cc2ccc(-c3nn[nH]n3)cc2)n1 | inconclusive: 22.3 µM [activator, partial curve] | 
27 | COc1ccc(Br)cc1CN1CCN(C(=O)c2cccc(F)c2)CC1 | inconclusive: 25.1 µM [inhibitor, partial curve] | 
28 | Cc1nn(-c2ccccc2)c2[nH]c(=O)c(CNCC3CCCO3)cc12 (stereo unspecified) | inconclusive: 17.8 µM [inhibitor, single point] | 
29 | NC[C@H](O)c1ccc(O)c(O)c1 | inconclusive: 4.46 µM [inhibitor, partial curve] and inconclusive: 3.15 µM [inhibitor, partial curve] | 
30 | COc1ccc2[nH]c(=O)c(CNc3ccccc3)cc2c1 | inconclusive: 17.7 µM [inhibitor, partial curve] | 
31 | O=C(O)c1ccnc(C(=O)O)c1 | active: 1.77 µM | 
32 | CC1CCN(S(=O)(=O)c2ccc3c4c2CC(=O)N4CC(C)S3)CC1 (stereo unspecified) | inconclusive: 12.6 µM [inhibitor, partial curve] | 
33 | COc1ccc(CN2CCN(Cc3cccc(Oc4ccccc4)c3)CC2)c(OC)c1OC | inconclusive: 14.1 µM [inhibitor, partial curve] | 
34 | CCN(C(=O)C1CCN(c2nc(-c3ccc(OC)cc3)no2)CC1)c1ccc(OC)cc1 |  | inactive: -12.7%
35 | COc1ccc(/C(N)=N/OC(=O)Cc2ccccc2OC)cc1 |  | inactive: 1.19%
36 | COC/C=C/C1=CC2=CC(=O)C(C)(OC(=O)c3cnc4ccccc4n3)C(=O)C2=CN1C1CCCC1 (stereo unspecified) | inconclusive: 0.5 µM [inhibitor, full curve] | 
37 | CC(NCCCOc1cccc2ccccc12)c1ccccc1 (stereo unspecified) | inconclusive: 14.1 µM [inhibitor, partial curve] | 
38 | CCCCNC(=O)C(c1ccc(OCC(=O)OC)c(C(=O)OC)c1)N(Cc1ccccc1)C(=O)CCCCCN1C(=O)NC(c2ccc(-c3ccccc3)cc2)C(C(=O)OCc2ccccc2)=C1C (stereo unspecified) |  | inactive: 5.19%
39 | Cc1cc(C(=O)CSc2nc3ccccc3[nH]2)c(C)n1CC1CCCO1 (stereo unspecified) |  | inactive: -0.149%
40 | COc1cc(C(=O)O/N=C2\C=CC(=O)C(C)=C2)cc(OC)c1OC | active: 19.9 µM | 
41 | O=C(O)c1ccc(-c2noc(-c3ccccc3F)n2)cc1 | inconclusive: 25.1 µM [activator, partial curve] | 
42 | O=C1S/C(=C\C=C\c2ccco2)C(=O)N1c1ccc(O)cc1 | inconclusive: 17.7 µM [inhibitor, partial curve] | 
43 | COc1cccc2sc(Nc3nc(C)c(C(C)=O)s3)nc12 | inconclusive: 5.61 µM [activator, single point] | 
44 | CCCn1c(C)nc2c(NCCN(C)C)nc(C)nc21 |  | inactive: 4.08%
45 | COC(=O)c1cc(NC(=O)c2ccc(C)cc2)c(=O)oc1C |  | inactive: 5.61%
46 | O=C(NNC(=O)c1cc(Cl)ccc1O)c1cccs1 | inconclusive: 5.01 µM [inhibitor, full curve] | 
